Molecular target: recombinant human BAFF (human, UniProt Q9Y275 in part)
Experiment: ELISA

UniProt Q9Y275, sequence (Q9Y275 134-285): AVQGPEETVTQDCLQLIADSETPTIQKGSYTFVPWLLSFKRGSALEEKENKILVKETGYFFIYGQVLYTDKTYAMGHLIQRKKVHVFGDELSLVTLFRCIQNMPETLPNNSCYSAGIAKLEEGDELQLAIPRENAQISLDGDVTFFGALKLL

Binder	EC50 [nM]
fusion protein B (Fc fusion) AMRSCPEEQYWDPLLGTCMSCKTICNHQSQRTCAAFCRSLSCRKEQGKFYDHLLRDCISCASICGQHPKQCAYFCENKLRSPVNLPPELR[human IgG1 Fc with D221Y (EU numbers) omitted here]	0.131
fusion protein A (Fc fusion) LPAQVAFTPYAPEPGSTCRLREYYDQTAQMCCSKCSPGQHAKVFCTKTSDTVCDAMRSCPEEQYWDPLLGTCMSCKTICNHQSQRTCAAFCRSLSCRKEQGKFYDHLLRDCISCASICGQHPKQCAYFCENKLRSPVNLPPELR[human IgG1 Fc with D221Y (EU numbers) omitted here]	0.155
